The source of these data is patent US20260015418A1 (ABL BIO, published 2026).

Experiment [1] addresses T1, human ROR1-Fc protein (Sino Biological, 13968-H02H1) (human, UniProt Q01973 partial chain).
T1 construct: Bought protein; also called human ROR1 protein (13968-H02H1, Fc tag)
Briefly: SPR Biacore T200, ROR1-Fc amine-coupled on CM5, antibody as analyte, bivalent analyte model (Kd1/Ka1). As for the experimental part: (§1) The binding affinity of both BA6M11(WT)x1A10M12 and BA6M11 (NA)x1A10M12 clones, which are anti-ROR1/anti-4-1BB bispecific antibodies comprising BA6M11 clone, was assessed using surface plasmon resonance (SPR). The antigens used for this assessment were human ROR1 protein (13968-H02H1, Fc tag) from Sino Biological and human 4-1BB protein (9220-4B-100, his tag) from R&D Systems. The measurements were conducted on a Biacore T200 instrument (Cytiva).
(§2) The CM5 chip (Cytiva, BR100530) was coated with a 5 μg/mL human ROR1 protein dilution in Acetate 4.0 (Cytiva, BR100349) using the amine coupling method (Cytiva, BR100050) to achieve a surface density of about 80 RU. […] These diluted antibody samples were then flowed over the human ROR1 protein-immobilized CM5 chip for approximately 60 seconds to conjugate the sample to the antigen, followed by flowing HBS-EP buffer (1×) over the sample-antigen complex for 180 seconds to dissociate the sample from the antigen. […] Binding affinity was analyzed using the bivalent analyte model to derive the primary association rate constant (Ka1) and primary dissociation rate constant (Kd1). The equilibrium dissociation constant (KD) was calculated by dividing the primary dissociation rate constant by the primary association rate constant, and this value was used to represent the final binding affinity.

Experiment [2] deals with T1, human ROR1-Fc protein (Sino Biological, …). Briefly: SPR Biacore T200, ROR1-Fc amine-coupled on CM5, antibody as analyte, bivalent analyte model (Kd1). As for the experimental part:
as §1, §2
A general note: In SPR one partner is held on a chip, and binding of the other changes the refractive index at the surface.

The target in experiment [3] is T2, human ROR1 on cells (NCI-N87, CHOK1-hROR1, AGS, CHO-huROR1-huB7-H3) (human, UniProt Q01973 30-937).
T2 construct: whole, on cells; also called cell surface ROR1
Put plainly: flow cytometry on ROR1-positive NCI-N87 cells, FITC-conjugated anti-human IgG (Fc specific). On the procedure:
In particular, Jurkat cells overexpressing human 4-1BB (Promega) and NCI-N87 cells, a human ROR1 positive cell line (ATCC), were seeded into V-bottom 96-well plates (96 Well Plate-RV, Bioneer, 910D09) and washed with 200 μl/well of 1% BSA buffer. Fourfold dilutions of the test materials (bispecific antibodies) starting from 100 nM were added to each well and incubated for 1 hour at 4° C. The plates were then washed with 1% BSA buffer. To each well, FITC-conjugated anti-human IgG (Fc specific) (Sigma, F9512) dissolved in 1% BSA buffer was added and incubated for 1 hour at 4° C. The plates were washed again with 1% BSA buffer. The mean fluorescence intensity (MFI) of FITC was measured by flow cytometry. Four-parameter logistic curve analysis was performed on the obtained MFI values using GraphPad software.

The target of experiment [4] is T1, human ROR1-Fc protein (Sino Biological, …). Briefly: SPR Biacore T200, ROR1-Fc amine-coupled on CM5, antibody as analyte, bivalent analyte model (Ka1). On the procedure:
as §1, §2

Experiment [5] has the same target. Briefly: dual-antigen capture ELISA (DACE): plate coated with human ROR1-Fc, antibody titrated, then human 4-1BB-His and anti-His HRP, OD450. On the procedure: Briefly, 96-well microtiter plates (NUNC, 446612) were coated overnight at 4° C. with human ROR1-Fc protein (Sinobio, 13968-H02H1) in PBS at 10 ng/well, then the plates were incubated with 1% BSA buffer (1×PBS, 1% (v/v) BSA) at 200 μl/well for 2 hours at 37° C. to prevent nonspecific binding. After blocking nonspecific binding, the wells were washed, and serial dilutions of the bispecific antibody test materials (starting at 100 nM) were added to each well. After incubation for 2 hours at 37° C., the plates were washed with PBS-T (1×PBS/0.05% (v/v) Tween-20). Then, human 4-1BB-His protein (Sinobio, 10041-H08H) dissolved in 1% (v/v) BSA was added to each well at 100 ng/well and incubated for 1 hour at 37° C. After washing the plates with PBS-T, anti-His HRP (Roche, Cat: 11965085001) was added and incubated for 1 hour at 37° C. After washing, color development was conducted TMB (tetramethylbenzidine, Sigma, T0440) and the reaction was stopped with 0.5M sulfuric acid (Samchun Chemicals, S1410), followed by reading absorbance (OD) at 450-650 nm in a spectrophotometer. Four-parameter logistic curve analysis was performed using GraphPad software.
On the technique in general: In an ELISA, binding on a coated surface is turned into a signal by an enzyme label.

B1: BA6M11(WT)x1A10M12 anti-ROR1/anti-4-1BB bispecific antibody (bispecific antibody, human IgG1, lambda)
heavy: EVQLLESGGGLVQPGGSLRLSCAASGFTFSNYDMSWVRQAPGKGLEWVSAIYHSGSSKYYADSVKGRFTISRDNSKNTLYLQMNSLRAEDTAVYYCARGGSGAWDTGFDYWGQGTLVTVSS[human IgG1 constant region not shown]GSGSGSGSGSGSGSGSGSQSVLTQPPSASGTPGQRVTISCSGSSSNIGNNYVTWYQQLPGTAPKLLIYADSHRPSGVPDRFSGSKSGTSASLAISGLRSEDEADYYCATWDYSLSGYVFGCGTKLTVLGGGGSGGGGSGGGGSGGGGSEVQLLESGGGLVQPGGSLRLSCAASGFTFSSYDMSWVRQAPGKCLEWVSWISYSGGSIYYADSVKGRFTISRDNSKNTLYLQMNSLRAEDTAVYYCARDAQRNSMREFDYWGQGTLVTVSS
light: QSVLTQPPSASGTPGQRVTISCSGSSSNIGSNDVSWYQQLPGTAPKLLIYYENNRPSGVPDRFSGSKSGTSASLAISGLRSEDEADYYCGAWDDSLSGYVFGGGTKLTVLGQPKAAPSVTLFPPSSEELQANKATLVCLISDFYPGAVTVAWKADSSPVKAGVETTTPSKQSNNKYAASSYLSLTPEQWKSHRSYSCQVTHEGSTVEKTVAPAECS
notes: also called BA6M11(WT)×1A10M12
In experiment [1], B1 had a Kd of 6.05 nM. For the same molecule, the koff (as a rule, the rate constant with which the complex falls apart) in experiment [2] amounted to 0.00146 s⁻¹. In addition, the EC50 (read off the curve) – broadly, the midpoint of the concentration-response curve – in experiment [3] was ~0.2 nM; in experiment [5], ~0.4 nM. Also, in experiment [4], the on-rate constant (kon) (in general, a measure of how fast the partners come together) amounted to 241000 M⁻¹ s⁻¹.
